This is an account of results in ChEMBL document CHEMBL4888484, “Replenishing the malaria drug discovery pipeline: Screening and hit evaluation of the MMV Hit Generation Library 1 (HGL1) against asexual blood stage Plasmodium falciparum ,using a nano luciferase reporter read-out” (2022).

Screen size: about 150,000 compounds; about 540 (0.36%) showed an effect of 50% or more. This is one part of the list.

For this assay, the system named is Plasmodium falciparum. In words: Primary screen in NF54 nanoGlo assay, in single point, at 2uM, 72h; a lower Z score goes with more inhibition. The format is functional, Erythrocyte. The settings on record: timepoint 72 hour.
`Cc1c(Cl)cnn1CC(=O)N1CCC(C(=O)N2CCCC2)CC1`: the “% Inhibition” value is -9% and the Z score turned out to be 1.3.
For `NC(=O)N1CCC[C@H](C(=O)N2CCN(c3ccccc3Cl)CC2)C1`, the “% Inhibition” value stood at 1% and the Z score is on record as -0.08.
The corresponding values for `O=C(NC1CC1)c1cccc(C(=O)N[C@H](C2CCC2)C2CC2)c1` are 0% and -0.05.
The corresponding values for `O=C1N[C@]2(CCOC2)C(=O)N1CCOc1c(Cl)cccc1Cl` are 2% and -0.22.
The corresponding values for `CCN(C(=O)CCn1c(=O)cc(C(F)F)c2c(C)n(CC)nc21)c1ccccc1` are 27% and -3.03.
`Cn1cc(C#N)cc1C(=O)NC1CCCCC1`: the “% Inhibition” value is on record as 5% and the Z score is -0.71.
The corresponding values for `CCc1nncn1CCNC(=O)NCC[C@H]1CCc2ccccc21` are -12% and 1.54.
Regarding `CCc1cccc(C)c1N1C[C@@H](C(=O)N(C)Cc2ncc[nH]2)CC1=O`, the “% Inhibition” value was 16% and the Z score is reported as -2.24.
The corresponding values for `Cc1ccc(-n2nccc2NC(=O)[C@H]2CCC(=O)N2C)nn1` are -3% and 0.37.
The corresponding values for `CCNC(=O)COc1cccc(NC(=O)C2=NN(c3ccc(F)cc3)C(=O)CC2=O)c1` are -5% and 0.75.
As to `C[C@H](NC(=O)c1cnnn1-c1ccccc1)c1n[nH]c(N)n1`, the “% Inhibition” value is recorded as -15% and the Z score stood at 2.3.
The corresponding values for `CN(C)CC(=O)N1CCN(C(=O)C2CC(OCc3ccccc3)C2)CC1` (stereo unspecified) are -8% and 1.07.
`Cc1ccc2c(c1)C(NC(C)CCn1cccn1)CO2` (stereo unspecified): the “% Inhibition” value is listed as -2% and the Z score is 0.24.
The corresponding values for `N#Cc1ncn(CN2CCN(c3ccc(F)cc3)CC2)n1` are 28% and -3.15.
As for `COC(=O)c1ccccc1S(=O)(=O)Nc1cccn2c(C3CCC3)nnc12`, the “% Inhibition” value is on record as -1% and the Z score came out at 0.14.
The corresponding values for `CN(Cc1cccc(C(=O)O)c1)C1CC(Oc2ccccc2)C1(C)C` (stereo unspecified) are -8% and 0.95.
The corresponding values for `CC(C)c1n[nH]c2c1CN(C(=O)Nc1ccc3c(c1)COC3=O)CC2` are -13% and 1.44.
The corresponding values for `O=C(O[C@H]1CCOC1=O)c1ccc(S(=O)(=O)N2CCCCC2)cc1` are -1% and 0.1.
`Cc1ccc(N2C(=O)N(Cc3cccc(C#N)c3)S(=O)(=O)c3cccnc32)cc1`: the “% Inhibition” value is listed as -11% and the Z score is on record as 1.08.
For `CCN(CC)C(=O)c1cn2c3c(cccc3c1=O)CC2`, the “% Inhibition” value is -1% and the Z score was found to be 0.09.
The corresponding values for `CC(=O)N[C@H]1CO[C@@H](CN(C)CCc2ccccc2)[C@@H]1O` are 2% and -0.3.
As for `Cc1cncc(CNC(=O)N[C@H]2CC23CCCCC3)c1`, the “% Inhibition” value was -11% and the Z score is recorded as 1.99.
The corresponding values for `COc1ccc2c(c1)C(N1CCN(C(=O)c3ccccc3OC)CC1)=Nc1ccc(C)cc1O2` are 7% and -0.86.
For the molecule `O=c1[nH]c2cc3[nH]c(=O)c(=O)c3cc2c1=O`, the “% Inhibition” value is recorded as -18% and the Z score amounted to 2.36.
As to `Cn1ncnc1CCNS(=O)(=O)CC1CCCC1`, the “% Inhibition” value is on record as -7% and the Z score is listed as 1.01.
For `O=C(Cn1nnc2ccccc21)NC1CC1c1cccc(F)c1` (stereo unspecified), the “% Inhibition” value is -24% and the Z score is given as 2.78.
The corresponding values for `COc1ccc(C(NC(=O)C2CCCc3ccccc32)C(=O)O)cc1` (stereo unspecified) are -13% and 1.28.
The corresponding values for `CC1CN(C(=O)Cn2cc(NC(=O)c3n[nH]c4c3CCC4)cn2)CC(C)O1` (stereo unspecified) are -2% and 0.38.
The corresponding values for `C[C@H](Oc1ccc(F)cc1)c1nnc(C2(c3ccc(Cl)cc3)CCOCC2)o1` are 1% and -0.12.
Turning to `Cc1cc(NC(=O)[C@H](C)Nc2ccc3c(c2)OCO3)on1`, the “% Inhibition” value is reported as -1% and the Z score stood at 0.14.
On to `Cc1ccc2nc(NC(=O)Cc3c(C)nn(C)c3C)sc2c1`, for which the “% Inhibition” value is given as -7% and the Z score was 1.19.
The corresponding values for `CCc1nc(OCC(=O)NCCOC)c2c(-c3ccc(F)cc3)noc2n1` are -3% and 0.49.
For `CC(C)(C)OCCON=C(N)c1cccs1`, the “% Inhibition” value came to 34% and the Z score is given as -4.96.
`CC(C)C(=O)N1CCc2ccc(OCc3nc(C(=O)N(C)Cc4ccccc4)cs3)cc2[C@@H]1c1ccccc1`: the “% Inhibition” value is on record as 1% and the Z score is reported as -0.07.
Turning to `c1c[nH]c(CNc2ccc3scnc3c2)n1`, the “% Inhibition” value is -2% and the Z score is given as 0.2.
The corresponding values for `CCN1CCN(CC#CCOc2cccc(OC)c2)CC1` are -5% and 0.56.
The corresponding values for `CNC(=O)c1nc(-c2ccccc2)n2c1CCN(C(=O)Cn1ccnc1)CC2` are -9% and 1.21.
On to `CCO[C@@H](C)C(=O)N1CCN(CC(C)(C)O)CC1`, for which the “% Inhibition” value is recorded as -5% and the Z score was determined as 0.49.
The corresponding values for `CCc1nccc(CN2CCC[C@H](CNC(=O)c3ccncc3)C2)n1` are -12% and 1.5.
Turning to `Cc1ccnc(CNC(=O)N2CCOCC(F)(F)C2)c1`, the “% Inhibition” value turned out to be 17% and the Z score is recorded as -2.13.
Take `O=C(N[C@@H]1CCCC[C@H]1OCc1ccccc1)N1C[C@@H]2CCS(=O)(=O)[C@@H]2C1`: the “% Inhibition” value is given as 34% and the Z score is reported as -3.87.
Take `CCc1nc(C(C)NC(=O)C2CCCO2)cs1` (stereo unspecified): the “% Inhibition” value is -1% and the Z score is recorded as 0.11.
The corresponding values for `Cc1cc(F)ccc1NC(=O)CCn1c(=O)cc(C(F)(F)F)c2c(C)n(C)nc21` are -5% and 0.61.

As usually defined, the % Inhibition is the drop in the measured response relative to a control, in per cent.
